{"source": "the supplement of paper PMC11417369", "note": "± gives the standard deviation of the averaged measurements. This is one part of the list.", "data": [{"test_system": "PfAP2-G AP2 domain (GST-tagged)", "test": "gcPBM binding intensity (ln(normalized median fluorescence intensity)); higher = stronger DNA binding", "outline": "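In this array assay, P. falciparum DNA-binding domains with a GST tag, expressed in E. coli, were applied for 1 h to primer-extended double-stranded 36-bp intergenic genomic probes and negative controls on an Agilent 4 × 180k array. Bound protein was visualised with Alexa488 anti-GST antibody at 488 nm. Binding intensity is the highest Masliner-normalised natural-log median intensity across replicate spots of either probe orientation.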", "values": [{"sequence": "CTTATATGAAGCCTCTTTATTCATAAATAAGAATAA [TGCATGCA_negctrl_site120]", "gcPBM binding intensity (ln)": "9.77 ± 0.099"}, {"sequence": "AAAAAATTCAAAATCACACATAAAAAAGGACACATA [CACACA_site5972]", "gcPBM binding intensity (ln)": "11.4 ± 0.79"}, {"sequence": "CCTACAATTCGTAATACACACACATATATATATATA [CACACA_site9251]", "gcPBM binding intensity (ln)": "10.3 ± 0.3"}, {"sequence": "AAAAAAAAAAAAAACACACACATATAATATATTTAA [CACACA_site1337]", "gcPBM binding intensity (ln)": "9.62 ± 0.18"}, {"sequence": "TCATATTATAAAAAATGTACAAGGAAAAAATATATA [XGTACX_site337]", "gcPBM binding intensity (ln)": "11 ± 0.43"}, {"sequence": "TAATTTTGTAAAAATTGTACATATTTATCTTTTTAT [XGTACX_site4305]", "gcPBM binding intensity (ln)": "11.1 ± 0.81"}, {"sequence": "TATATTATAAATTAATGTACGTAATTTTTTTTTTTT [XGTACX_site2500]", "gcPBM binding intensity (ln)": "11.5 ± 0.93"}, {"sequence": "AGAATCACCAAATATGTACACACCTTAACATGTTTA [CACACA_site2068]", "gcPBM binding intensity (ln)": "11.4 ± 0.91"}, {"sequence": "ATATATATGGTCATTTGTACATATCGTGAGAGCTGC [XGTACX_site4117]", "gcPBM binding intensity (ln)": "11 ± 0.49"}, {"sequence": "ATATAACATAATGGATGTACATGTATAAATATAAAA [XGTACX_site8228]", "gcPBM binding intensity (ln)": "11.2 ± 0.76"}, {"sequence": "TAAACATACAGATACACACACACACCCACAGAGACA [CACACA_site4429]", "gcPBM binding intensity (ln)": "10.4 ± 0.34"}, {"sequence": "TTTTTTTTTTACTTCACACATATACATTTATATTTA [CACACA_site4385]", "gcPBM binding intensity (ln)": "9.96 ± 0.071"}, {"sequence": "ATATATACAAATCCTTTTTTCCAAGATGGAAAAAGA [CACACA_negctrl_site382]", "gcPBM binding intensity (ln)": "10 ± 0.12"}, {"sequence": "AAAATAATAAATAACGCATGCGTGTGCATTTTATTC [TGCATGCA_site898]", "gcPBM binding intensity (ln)": "10.1 ± 0.23"}, {"sequence": "ATTATATAATCTATATGTACATATATATATATATAT [XGTACX_site4970]", "gcPBM binding intensity (ln)": "11.3 ± 0.8"}, {"sequence": "TATATATAAGCGCATGCACACGCAAAGGTATATAAA [CACACA_site8107]", "gcPBM binding intensity (ln)": "10.05 ± 0.057"}, {"sequence": "CTTGGGCGTCATAATGAACACACAATTATATTATGA [CACACA_site9297]", "gcPBM binding intensity (ln)": "10.4 ± 0.46"}, {"sequence": "TTATTACCATATTTTGTACACACATCTTTATCTCAA [CACACA_site9054]", "gcPBM binding intensity (ln)": "11.2 ± 0.6"}, {"sequence": "TTTTGTCAACATTTTTATATTAGGTCTTGAACGATT [GTGCAC_negctrl_site72]", "gcPBM binding intensity (ln)": "10.2 ± 0.18"}, {"sequence": "GTATAATTTAAAAAGTGTACATAAAGTTTTTATTAA [XGTACX_site1090]", "gcPBM binding intensity (ln)": "11.6 ± 0.81"}, {"sequence": "AGTAATAAGTAATTTACACACATATTATAGCATCAC [CACACA_site6971]", "gcPBM binding intensity (ln)": "10 ± 0.14"}, {"sequence": "ATAATAATATTATTTTGTACATATGTGCTTATTTAT [XGTACX_site5540]", "gcPBM binding intensity (ln)": "10.9 ± 0.47"}, {"sequence": "TTTTTGTGCATTGATTGTACTTTCTAGGATTATTAA [XGTACX_site7070]", "gcPBM binding intensity (ln)": "11.2 ± 0.72"}, {"sequence": "TTTTTTTACTTAATAGTTCAACATATATCTCAATGT [CACACA_negctrl_site620]", "gcPBM binding intensity (ln)": "9.885 ± 0.007"}]}]}
